Experimental findings from the RNAGym collection of RNA variant scans (doi:10.7554/elife.90254) are described below.

First the molecules themselves.
B1: LINE1-mini (parent)
chain: GGCAGAGCUCAACACAGCGUGGCAAAGUGGCUGUGGCUAGACUGCC

Read counts are not given, so values of variants with three or more changes are uncertain.

Variants of B1 are the subject of this series. Put plainly: self-cleavage, relative activity (ratio to wild type); higher = more cleavage; in vitro, sequencing; the parent is a self-cleaving ribozyme.
As for A6G A16G G19A A25G U38C, the self-cleavage came to 0.01.
The value for G2A G22U G27A G29U G36A was 0.09; that for A11U C15U G30U G35C was 0.05; that for C3G G33A G36U was 0.27.
As to C18U G27A U28C U32A U38A, the self-cleavage was 0.08.
As for G2A A41U C42A, the figure is 0.1; as for G7U G35U U43A, 0.46; as for G21U U28G C31U A41U, 0.56.
In the case of A11U A14G U32C G40C, the self-cleavage is 0.01.
As for G2A U34G C45U, the figure is 0.21.
As for U20G C23U G29U G30A, the figure is 0.3.
Take G7U U9G G17C G30A: the self-cleavage worked out at 0.13.
The value for G5C A14C C18A C23U G36C was 0.02.
The value for A24U A41G C46A was 0.23; that for G29U C37U G44A was 0.02; that for U20A C23A G36U was 0.02.
For the variant G1C U28G G40U, the self-cleavage came to 0.
The value for G2A G21U U38C A39C G40U was 0.07; that for G1A U38A U43A was 0.07; that for A16U C23U U32G G35U G36A G40C C42A was 0.11.
As for C8A A14C G22C C23U G27A U32G, the figure is 0.03.
As for C10G A14U A41G, the figure is 0; as for G17U G21C G27U C46A, 0.17.
On to G7A C31U G33A A39C, for which the self-cleavage was found to be 0.13.
G7U U34G G40U: the self-cleavage worked out at 0.13.
The value for G1U C3U C10A U20A A41C was 0.02.
As for C13A A26U G30U G33C C46A, the figure is 0.06.
The value for A4C C23G C37U was 0.02; that for G5U A6G C8G A12G A26C G44C was 0.02.
As for C3U C10U A11U G17C G21A, the self-cleavage turned out to be 0.06.
As for C13U G19U C31A G33U, the figure is 0.19.
As for C10A U43C C45U, the figure is 0; as for C15G G21A U28A C46G, 0.02; as for U20G A26C U34G G40U, 0.03.
With G2A U28G C37G C45A, the self-cleavage was 0.1.
As for G2C U20G A24G G33A G36U G40U U43C, the figure is 0.03; as for C13G C23G C31A C37U A39G, 0.01; as for A4U C8A A12U, 0.14.
As for C15U G21A A24C C31A C42A, the figure is 0.02; as for C3A G17U G30U G40U, 0.15; as for A11U G30U C46A, 0.09.
The value for U20C C23A C37U was 0.01.
With C15A G19U U20A, the self-cleavage came out at 0.03.
Take C15A G22A U28C C46A: the self-cleavage stood at 0.06.
As for A6C G21U A26U G29C, the figure is 0.66; as for C3U C23A G35A G44U, 0.05.
As for C3A G7A A41C, the figure is 0.27.
As for G5U U20C A24U U32G G40C, the figure is 0.
Consider C8A U20C G36A A41G C42A, for which the self-cleavage is 0.06.
The value for A6G C8U G19C G21A A39G C45G was 0.03; that for C3A A4U A11U was 0.03.
The value for G5A C8G C15U U28C C31A was 0.05; that for A14U C23A A24C was 0.89.
As to G5U A14G C15G A26U G29A A41U U43G, the self-cleavage turned out to be 0.01.
As for U9A U28G C42A, the figure is 0.19; as for U9G A24C G30C A41U U43A G44C, 0.04; as for A4C C8A G19C C23A U32G, 0.18.
Turning to G2C G5A G36U, the self-cleavage is 0.06.
The value for A4C G17U U34G was 0.17.
The value for A4C A14U G22A G27A A41C was 0.01.
As for G1C G7C G17C, the figure is 0.03; as for G5C G7U C15U G35A, 0.37.
For A4G G19U A26C G35U, the self-cleavage was determined as 0.04.
As to G7U C10A U20A, the self-cleavage was found to be 0.01.
As for U9G G21U C23G C37G A39C A41G, the figure is 0.01; as for C13U C18U A26C C46A, 0.04.
In the case of G1C G7U C10G U32A, the self-cleavage amounted to 0.04.
The value for C18A G29A C42G was 0.03; that for A12C G36A A41G C42G G44C was 0; that for G2C U20C G35A C46A was 0.02.
As for G7A A14G G17A G21U, the figure is 0.03; as for G2C G19A U28G C42U, 0.32.
The value for G17U C42G C45A was 0.02; that for G7A U20A G33U was 0.06; that for U28G U32A G33U was 0.03.
For C10G G30U A39C, the self-cleavage amounted to 0.01.
The value for A11U U32C C42G was 0.03; that for G2A A4C C23U G27A was 1.64; that for G7A C8G A24U G35C G36U was 0.11.
The value for G2C G5U U20G was 0.01; that for G5C C15U G21U was 0.09.
As for A4G C8U C10G C23U C45A, the figure is 0.01; as for C10U A12C G17A C23G A26C G33U G36A, 0.01; as for G5C C13G U20C A41G C42G, 0.19.
As for G7A A12U C13A U28C A39U, the self-cleavage is 0.13.
As for G22C U34C U43A C45A, the figure is 0.04.
As for G29C G30C U38G, the figure is 0.01; as for G5C A12G C15A G30U, 0.03.
The value for C3U C10A A26C was 0.01.
Turning to A4G C13U A14C A16G U32C A39G G40U, the self-cleavage came out at 0.25.
The value for G1U C31A C46A was 0.08; that for G1C U20C G22A G33A was 0.02; that for C8A A14G C37U was 0.1.
The value for A4C C15A A25G G35U C45A was 0.07.
The value for C13U C15A C23U A25U C42U was 0.24.
For the variant A6C G17U A26C, the self-cleavage was determined as 0.97.
For the variant G7U U9A A25U A26U G35C, the self-cleavage was determined as 0.03.
As for G2U A12C G40A, the figure is 0.01; as for G7U C10A G17A C31G, 0.09.
The value for A6G G29A G33U C42G was 0.01.
The value for U28G G33A G36A was 0.
As to G5C A24G A26U, the self-cleavage is 0.03.
Consider G1U A4U U32C C45G, for which the self-cleavage came to 0.01.
In the case of G7A U32G A39U, the self-cleavage worked out at 0.08.
Turning to C3G G17A C18A G19U, the self-cleavage is 0.07.
For G7U C15A C18U G40U, the self-cleavage was determined as 0.18.
As for C8A G19U A39C, the figure is 0.04; as for A12U G29A G30C C45U, 0.42.
Consider C8U C23U G35C, for which the self-cleavage amounted to 0.04.
As for G2C C10A G29U G44C, the figure is 0.01; as for U9G C15A U20C G40U, 0.04.
As for C15G A39U C45G, the figure is 0.02; as for G21U U38G A39U, 0.04.
As for G2C A11G G40U, the figure is 0.01; as for C18U U20C A26U C46U, 1.59.
For the variant U9G A25C C42U, the self-cleavage amounted to 0.07.
With A16G G29A G36C, the self-cleavage was 0.19.
The value for C3G A14U G19U C46G was 0.27.
As for C8G G19A C31U, the figure is 0.01; as for A16G C18A U20C C31U, 0.02; as for G5U C18A U38A, 0.04.
The value for A6C G7A C42U was 0.22; that for C15A C37G A41U was 0.05; that for G5U G27A C31A U32C was 0.02.
On to U9G U38C U43C G44U, for which the self-cleavage worked out at 0.02.
As for G2A C10U G29A, the figure is 0.34; as for C3A A4C G7U A14G A41U, 0.53; as for C18A G22A C45G, 0.08.
As for G2A U9G A41U, the figure is 0.22; as for C10A C13A C18G A24C, 0.05.
Turning to U9A G40U C45U, the self-cleavage is 0.56.
In the case of U9A A12C C18G, the self-cleavage is 0.01.
As for G1A A14U A25G U43C, the figure is 0.14.
As for A6U C10U G19U G33U, the figure is 0.05; as for A4C G17U C42U, 0.05.
The value for G22U C23A U34A C42U was 0.13; that for G5U C8A C10A was 0.02; that for A6U G17U C18U A25G G36U A41G was 0.01.
As for G1U G21U A41U C45U, the self-cleavage came out at 0.6.
As for C10G U20A A25C G30A, the figure is 0.04; as for A4G C15U G33C C46A, 0.08; as for G2A C10G A14U G27U G29C G33C, 0.03.
As for G5U C13U G19A U20A A24G, the figure is 0.03; as for G17A C23U A24U A26U G36A, 0.07; as for A4U A6U C18U U38A G40A U43A G44U, 0.06.
The value for G1C C13G A16G C18U U20A G21U was 0.01.
For the variant C23A U32A U34A C46G, the self-cleavage came out at 0.02.
Take U9G G19U A25G G30A: the self-cleavage is 0.02.
As for C8U G36A G40C, the figure is 0.28; as for U28A G30A G44A, 0.09; as for G1A C10G A25C, 0.09.
With A12G A39G U43C, the self-cleavage is 0.
With C3A G29A G35U, the self-cleavage worked out at 0.18.
The value for C8A C10G C37G was 0.01; that for C8G U9C C23G A24U G29A was 0.02; that for G21A A24C U28A C42A was 0.32.
As for G2C C3U A41C, the figure is 0.08; as for A12C G21C C46U, 0.
The value for A16U G27A C42A C45U was 0.06; that for G19C U20A G30U G33U G44U was 0.08; that for A14U C15A C46G was 0.15.
On to G2U C10U C15U, for which the self-cleavage was determined as 0.03.
The value for A11C G22U G27U A39G was 0; that for G7A A14C C18A C31A C37U was 0.15.
A4U A26C G30U G33A: the self-cleavage was determined as 0.09.
As for G1C A25G C31U U34G, the figure is 0.03; as for A12G C18U A24C G35A, 0.01.
